# Out of some 46,000 compounds screened, about 60 (0.1%) were called active. Another 3% or so got no clear call; they are omitted. The call rests on the fitted dose curve; in most records, active means well fitted inhibition curve with a large enough effect; inconclusive means small, poorly fitted or top-dose-only effect; inactive means no such curve, though single readings can be large or run the other way. Some of the results follow.
# Test: Primary qHTS assay for Inhibitors of ovarian cancer metastasis using an organotypic tumor microenvironment (TME) model. Further: nearly all actives have a fitted effect of over 65% in size.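 On activity change, negative = inhibition: plate controls were DMSO wells for no effect and tomatine positive control wells for full effect.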
# Conditions: SKOV3ip1-GFP adhesion/invasion on 3D omental model, fluorescence; series mostly up to 45.8 µM; activity change, negative = inhibition: at the top concentration
# Summary of the method: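 Adhesion/invasion was scored as fixed GFP-labeled SKOV3ip1 cell counts (488/509 nm), normalized to DMSO and tomatine controls. Cancer cells in serum-free medium, with four compound doses (0.36-46 umol/L), sat 2 hr at RT then 16 hr at 37 C on a 48 hr fibroblast/mesothelial/ECM culture.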
SMILES,"activity change, negative = inhibition",outcome
Cc1ccc(S(=O)(=O)NCCSc2nnnn2-c2ccccc2)cc1,inactive: 70.7%,
Cc1oc2ccc(O)c(CN3CCC(C)CC3)c2c1C(=O)Nc1ccccc1,inactive: -4.63%,
CC1=C(C(=O)Nc2ccccc2)C(c2ccc(O)cc2)n2nc(-c3ccc(Cl)cc3)nc2N1 (configuration not stated),,inactive
Cc1ccc(C)c(Cn2c(=O)n(Cc3ccccc3)c(=O)c3sc4ccccc4c32)c1,inactive: 95.7%,
CCCN1C(=O)C(Cc2nc3ccccc3c(=O)n2CC)c2cc(Br)ccc21 (configuration not stated),,inactive
CC(C)(C)c1ccc(-c2nnc(-c3ccccc3NC(=O)c3cccc(C(F)(F)F)c3)o2)cc1,inactive: 11.6%,
Cc1ccc(CCNC(=O)c2ccc3c(c2)N(Cc2cc(C)ccc2C)C(=O)c2ccccc2S3=O)cc1 (configuration not stated),inactive: -18%,
Cc1cc(C)cc(NS(=O)(=O)c2ccc(-c3cc(C)no3)cc2)c1,inactive: -8.02%,
CCN(CC)c1ccc(NC(=O)CN2C(=O)c3cccnc3Oc3ccccc32)c(C)c1,inactive: 3.8%,
Cc1ccc(/C=C/c2onc(C)c2S(=O)(=O)N2CCC(C(=O)NCc3ccco3)CC2)cc1,inactive: 22.5%,
CCOC(=O)c1cccc(NS(=O)(=O)c2cc(Br)cc3c2N(C(=O)C2CC2)CC3)c1,inactive: 12.6%,
COc1ccc2c(c1)NC(c1ccc(F)cc1)=NC(c1ccc(F)cc1)=N2,inactive: -2.61%,
COc1ccc(CNC(=O)CCS(=O)(=O)c2cc(Br)cc3c2N(C(=O)C2CC2)CC3)cc1,inactive: 17.4%,
COc1cccc(N2CCN(C(=O)CN3CCSc4ccc(S(=O)(=O)N(C)C)cc43)CC2)c1,,inactive
COc1ccc(NC(=O)C2CCN(C3=NS(=O)(=O)C(c4ccc(C)c(C)c4)=C3C)CC2)cc1OC,inactive: -6.37%,
COC(=O)c1ccc(OCC2c3cc(OC)c(OC)cc3CCN2C(=O)c2cccc(C)c2)cc1 (configuration not stated),inactive: -2.87%,
O=C(Cn1nc(Cc2cccnc2)c2ccccc2c1=O)N1CCN(c2ccc(F)cc2)CC1,inactive: -6.34%,
CCCSCCCNC(=O)C1CCCN(C(=O)c2cnn(-c3ccccc3)c2-n2cccc2)C1 (configuration not stated),inactive: 9.02%,
COc1ccc(Nc2ncnc3onc(C)c23)cc1Cl,inactive: 8.24%,
CCCCN(Cc1ccccc1)S(=O)(=O)c1ccc2c(c1)CCN2C(=O)C1CCC1,,inactive
COc1cccc(CNC(=O)Cn2c(=O)n3nc(-c4cccc(C)c4)nc3c3ccccc32)c1,,inactive
COc1ccc(OC)c(CNC(=O)CCS(=O)(=O)c2ccc3c(c2)oc(=O)n3C)c1,inactive: -0.347%,
Cc1ccc(NC(=O)[C@H](CSCc2ccccc2)N2Cc3ccccc3C2=O)cc1,,inactive
Cc1ccc(C)c(N2CCN(CCCNc3ncnc4onc(-c5ccc(Cl)cc5)c34)CC2)c1,inactive: -4.78%,

SMILES,"activity change, negative = inhibition",outcome
COCCCNC(=O)CCCN1C(=O)CCn2nc(-c3cn(C)c4ccccc34)cc21,,inactive
COc1ccc(-c2ccnc3c2c(=O)n(C)c(=O)n3C)cc1OC,,inactive
CCN(C(=O)C(NS(=O)(=O)c1cccc2nsnc12)c1ccccc1)c1ccccc1 (configuration not stated),inactive: -1.98%,
CC1CCN(S(=O)(=O)c2cccc(C(=O)NC3CCS(=O)(=O)C3)c2)CC1 (configuration not stated),inactive: 0.416%,
Cc1ccc(C(=O)N2c3nc(-c4ccco4)nn3C3(CCCCC3)[C@@H]3CCCC[C@@H]32)cc1,inactive: 5.83%,
Cc1cc(Nc2ccc(C)c(Cl)c2)n2nc(-c3ccccc3)nc2n1,inactive: 9.84%,
Cc1cc(C)c(NC(=O)CN2C(=O)c3cccnc3Oc3ccc(Cl)cc32)c(C)c1,inactive: 3.8%,
COc1ccc(OC)c(CNC(=O)c2cc(=O)[nH]c3ccc(S(=O)(=O)N4CCCCC4C)cc23)c1 (configuration not stated),inactive: -3.51%,
Cc1ccc2cccc(NC(=O)c3ccc(-c4ccc(Cl)cc4Cl)o3)c2n1,inactive: 5.31%,
Cn1c(=O)c2c(-c3ccccc3)n3c(c2n(C)c1=O)C(c1cc(Cl)ccc1O)Nc1ccccc1-3 (configuration not stated),inactive: -8.97%,
O=C(CCNS(=O)(=O)c1cccc2nsnc12)Nc1ccc(F)cc1,,inactive
Cc1csc2nc(-c3cccc(NC(=O)c4ccc(S(N)(=O)=O)cc4)c3)cn12,,inactive
COc1ccc(-c2nc3cc(NC(=O)COc4ccc(F)cc4)ccc3o2)cc1,inactive: -5.1%,
O=C(NCCC1=CCCCC1)c1ccc2c(c1)ncn2-c1cccc(Cl)c1,inactive: 4.94%,
COc1ccc(S(=O)(=O)NCCc2sc(-c3ccccc3)nc2C)cc1OC,inactive: 1.16%,
CCOC(=O)N1CCC(NC(=O)c2cnn(-c3ccccc3)c2C2CCN(C(=O)OC(C)(C)C)CC2)CC1,inactive: 6.48%,
CCC(=O)Nc1ccc(S(=O)(=O)NCc2cccn2Cc2cccc(C)c2)cc1,inactive: 0.842%,
COc1ccccc1/C=C(\C#N)c1nc(-c2cc3ccccc3oc2=O)cs1,inactive: 1.68%,
COc1cccc(NC(=O)Cn2c(=O)n(Cc3nc(-c4ccccc4)no3)c(=O)c3ccccc32)c1,inactive: -4.4%,
CCOc1ccc(-c2cc(C)n3nc(C(=O)Nc4cc(Cl)ccc4O)cc3n2)cc1,,inactive
COc1ccc(N2CCN(C(=O)C3CCCN(S(=O)(=O)c4ccc5c(c4)oc(=O)n5C)C3)CC2)cc1 (configuration not stated),inactive: 7.69%,
CN(Cc1ccccc1)C(=O)c1ccc(CSc2nc3cccnc3n2Cc2ccccc2)cc1,inactive: -5.28%,
Cc1cccc(N2CCN(C(=O)Cc3c(C(=O)O)c(C)cn3C)CC2C)c1 (configuration not stated),inactive: -17%,

# Source: PubChem BioAssay AID1963576 (National Center for Advancing Translational Sciences (NCATS), 2024)
